Structures are written as SMILES. Over roughly 110,000 compounds, “z-score” has its median near -0.1; the highest 2% begin near 2. The list shows a part of the results. Calls of active or inactive are those of the source.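 The calls were made as follows: active = z-score in the third read window above 3 or below -3; inactive = the rest.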

The target of this assay is Metabotropic glutamate receptor 8 (Rattus norvegicus) (UniProt P70579). In words: mGluR8 Gi/Go-coupled signaling modulation – cell-based, rat, thallium flux, HTS, primary screen (AID 488969). As to conditions: HEK293 rat mGluR8, GIRK (G protein-gated inwardly rectifying potassium channel) thallium flux, FluoZin2; at 10 µM; stronger effect = higher value; submaximal glutamate (EC20) added with thallium.
Chain of UniProt P70579 (P70579 whole entry, looked up): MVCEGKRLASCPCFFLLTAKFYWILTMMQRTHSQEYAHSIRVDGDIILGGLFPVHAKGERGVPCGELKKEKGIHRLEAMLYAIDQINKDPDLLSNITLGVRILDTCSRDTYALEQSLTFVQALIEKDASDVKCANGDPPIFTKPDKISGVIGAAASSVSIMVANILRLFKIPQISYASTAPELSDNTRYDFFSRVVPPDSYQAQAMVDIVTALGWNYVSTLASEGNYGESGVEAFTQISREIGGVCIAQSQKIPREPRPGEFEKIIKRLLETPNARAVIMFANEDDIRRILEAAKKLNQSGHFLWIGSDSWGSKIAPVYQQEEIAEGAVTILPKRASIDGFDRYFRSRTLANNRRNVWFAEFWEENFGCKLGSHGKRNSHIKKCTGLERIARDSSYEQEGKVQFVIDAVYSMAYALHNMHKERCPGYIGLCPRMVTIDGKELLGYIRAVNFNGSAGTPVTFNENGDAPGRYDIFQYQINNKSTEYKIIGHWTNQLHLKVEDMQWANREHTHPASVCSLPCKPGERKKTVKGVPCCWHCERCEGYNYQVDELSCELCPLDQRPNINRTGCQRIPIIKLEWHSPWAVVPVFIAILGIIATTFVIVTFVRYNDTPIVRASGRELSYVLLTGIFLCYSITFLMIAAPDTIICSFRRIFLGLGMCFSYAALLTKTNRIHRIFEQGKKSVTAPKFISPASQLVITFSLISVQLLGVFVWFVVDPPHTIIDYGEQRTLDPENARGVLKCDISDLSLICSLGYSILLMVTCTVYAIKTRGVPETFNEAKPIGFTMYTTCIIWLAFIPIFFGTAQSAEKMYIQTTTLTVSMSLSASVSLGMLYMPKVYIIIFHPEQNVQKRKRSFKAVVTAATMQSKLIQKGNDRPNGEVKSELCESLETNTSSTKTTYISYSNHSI
Take `O=C(Nc1ccccc1C(F)(F)F)c1ccc(CN2CCC(Cc3ccccc3)CC2)cc1`: the z-score was -0.134.

`CCN1C(=O)/C(=C/c2cnn(CC)c2C)SC1=S` returned a z-score of -0.201.

For the molecule `O=C(Nc1ccccc1)c1cccnc1Nc1ccccc1`, the z-score stood at 0.425.

In turn, `CCOC(=O)c1cc2c(=O)n3cccc(C)c3nc2n(CCCOC)c1=NC(=O)c1cccnc1` yielded a z-score of -0.804. With `Cc1nn(CC(=O)Nc2ccc3c(c2)nc(CN2CCCC2)n3C)c(=O)c2ccccc12`, the z-score is -0.267.

`COc1ccccc1N1CCN(C(=O)CCc2ccc(S(=O)(=O)NCC(C)C)cc2)CC1` showed a z-score of -0.645. The same measure for `O=C(NC1CCCCC1)n1c(=O)oc2ccc(Cl)cc21`: 0.281. For `COc1cc(/C=C(/C(=O)c2cccs2)c2nc3ccccc3[nH]2)cc(OC)c1O`, the z-score was -0.306. In the case of `CCOC(=O)C1=C(Cn2cnc3ccccc32)NC(=O)NC1c1ccc(OC)cc1` (centres undefined), the z-score was 0.25.

`CCCc1nnc(NC(=O)CCCC(=O)O)s1` had a z-score of 0.133. `O=c1c2ccccc2nc(-c2ccc(Br)cc2)n1Cc1ccccc1` came in with a z-score of 0.236. The result for `O=C(Nc1ccc(Br)cc1Cl)Nn1cnnc1` reads 0.372.

`O=C(CCN1C(=O)S/C(=C\c2cccs2)C1=O)NC1=NCCS1` yielded a z-score of -0.157. The result for `CCCCCCn1c(SCCN2CCOCC2)nc2c1c(=O)[nH]c(=O)n2C` reads 0.139; that for `O=c1c(Cc2ccc(Cl)cc2)c(O)ccn1Cc1ccccc1`, -0.13. `CCOc1ncccc1C(=O)OCC(=O)Nc1ccc(S(=O)(=O)N2CCOCC2)cc1` registered a z-score of -0.343. The molecule `Cc1ccc(Oc2ccc(NC(=O)CCC(=O)OCC(=O)c3cccs3)cc2)cc1C` had a z-score of -0.166. On to `CCN(CC)c1ccc(/C=N/NC(=O)c2cccc(S(=O)(=O)Nc3ccccc3OC)c2)c(O)c1`, for which the z-score was -0.382. On to `CC(O)CN(CCC(N)=O)CCC(N)=O` (centres undefined), for which the z-score worked out at 0.0155.

For the molecule `CCOC(=O)c1cnc2c(C(=O)OC)cccc2c1NCCN1CCOCC1`, the z-score is 0.0487.

For the molecule `CCOC(=O)N1CCN(C(=O)COc2cccc3c2CCN(Cc2cccc(C)c2)C3=O)CC1`, the z-score is -1.44.

Molecule `Cc1nnc(SCc2ccc(C(=O)Nc3cc(Cl)ccc3C)cc2)s1` had a z-score of -0.409.

As for `CCc1ccc2c(c1)C1(SC(NC(C)=O)=NN1C(C)=O)C(=O)N2C(C)C` (centres undefined), the z-score was -0.0638. As to `CNS(=O)(=O)c1cccc(C(=O)OCC(=O)Nc2ccccc2OC(F)F)c1`, the z-score is -0.0739. For the molecule `CN(C)/C=C(/C(=O)c1ccc(Cl)cc1)S(=O)(=O)c1ccc(Cl)cc1`, the z-score was -0.209. With `Cc1cc(NS(=O)(=O)c2ccc(NC(=O)CSc3nnc(-c4ccco4)n3N)cc2)nc(C)n1`, the z-score worked out at 0.0831. Consider `CCOC(=O)N1CCC(NC(=O)c2cnn3c2NC(c2ccco2)CC3C(F)(F)F)CC1` (centres undefined), for which the z-score is active: 4.33.

For `Cc1c(C(=O)NCC2CCCO2)oc2ccc3c(c12)C(=O)CC(C)(C)O3` (centres undefined), the z-score was -0.495. `Cc1ccc2nc(-c3cc(N)cc(N)c3)oc2c1` yielded a z-score of -0.108.

For the molecule `COc1ccc(Oc2c(C)oc3c(CN(C)C)c(O)ccc3c2=O)cc1`, the z-score was determined as 0.571. The molecule `CCn1c(CCCOc2ccc(Cl)cc2Cl)nnc1SCC(=O)Nc1cccc(F)c1` came in with a z-score of -0.135. In the case of `CC1=C(C(N)=O)C(c2ccco2)C(C(N)=O)=C(C)N1`, the z-score was 0.671. `Cc1ccc2c(n1)sc1c(N)ncnc12`: the z-score stood at 0.306. For `O=C(C1=C(O)C(=O)N(c2ncccn2)C1c1cccs1)c1ccco1` (centres undefined), the z-score was -0.405. Molecule `CCOc1ccc(NC(=O)CN2CCN(CC(=O)Nc3ccc(F)c(F)c3)CC2)cc1` registered a z-score of -0.0841. Take `Cc1cc(Br)cc2c(C(=O)Nc3c(C)n(C)n(-c4ccccc4)c3=O)cc(-c3cccs3)nc12`: the z-score was -1.55.

In turn, `CCOc1cc2[nH]c(=S)n(CCc3ccc(OC)c(OC)c3)c(=O)c2cc1OCC` came in with a z-score of 0.145. Turning to `CCOc1cc(CNc2ccc3[nH]c(=O)[nH]c3c2)ccc1OCC(=O)NC(C)(C)C`, the z-score is -0.18. Molecule `COc1ccc(F)cc1S(=O)(=O)NC1CCCCCC1` returned a z-score of -2.12. In turn, `COc1ccc(C2=Nc3ccccc3OC2)cc1` gave a z-score of -0.349.

As to `COc1ccc(N(C(=O)c2ccco2)S(=O)(=O)c2ccc(F)cc2)cc1`, the z-score was -0.326.

Turning to `CCOC(=O)C1=C(C)OC(N)=C(C#N)C1c1cncc(-c2ccc(F)cc2)c1` (centres undefined), the z-score turned out to be 2.92. Molecule `O=C(COc1ccccc1F)N1c2ccccc2CCc2ccccc21` displayed a z-score of -0.375. `Cc1c(CCC(=O)O)c(=O)oc2cc3occ(-c4ccc(F)cc4)c3cc12` had a z-score of 1.01.

Molecule `Cc1cc(OCc2ccc(C(=O)NN=C3CCCC3)cc2)ccc1Cl` displayed a z-score of -0.135. `COc1cccc(NC(=O)CSc2nc3c(c(-c4ccco4)c2C#N)CCCC3)c1` came in with a z-score of -0.188.

For `Cc1ccc(S(=O)(=O)N2CCC(C(=O)NCCc3ccccc3)CC2)cc1`, the z-score came to 0.763. With `Cc1cc(Nc2ccccc2)n(-c2ccccc2)n1`, the z-score was 0.00239. In the case of `CCOC(=O)CNC(=O)CSc1nnc(-c2ccncc2)n1-c1ccc(Cl)cc1`, the z-score is -0.00946. As for `CCOC(=O)N1CCN(C(=O)COc2cc(=O)n(C)c3ccccc23)CC1`, the z-score was -0.979. `CCCN1C(=O)/C(=C/c2c(NCCCOCC)nc3c(C)cccn3c2=O)SC1=S` had a z-score of -0.31.

For `O=C(CSc1nnc(Cc2cccs2)n1Cc1ccco1)Nc1ccc(Cl)cc1Cl`, the z-score was -0.136. `COc1ccccc1NC(=O)c1ccc(NC(=O)COC(=O)C2CCCCC2)cc1`: the z-score is -0.369. The same measure for `O=C(COc1ccccc1Cl)NC(=O)NC1CCCC1`: 0.502; for `O=C(c1csc2ccccc12)n1cccn1`: -0.242. In turn, `COc1ccc(NC(=O)c2ccccc2NC(=O)c2ccco2)c(OC)c1` came in with a z-score of 0.217. The same measure for `CCn1ccc2cc(OC)ccc2c1=S`: -0.0313. The molecule `Cc1ccc(NC(=O)c2snc3ccc(Cl)cc23)cc1C` came in with a z-score of 0.00746. `CC(C)CCn1nc(C(=O)OC(C)C(=O)NC(N)=O)c2ccccc2c1=O` (centres undefined): the z-score was -0.395. Consider `CCOC(=O)c1c(C)nc2ccccc2c1C`, for which the z-score was -0.26. `Cc1ccc(-n2nc(CC#N)c(C#N)c2N)cc1Cl` yielded a z-score of -0.281. `Cc1ccc(-n2c(SCc3nc4ccccc4[nH]3)nnc2-c2ccncc2)cc1` showed a z-score of -0.18. Molecule `Cc1ccc(OCC(=O)Nc2ccc3c(c2)nc2n3CCOC2)cc1` came in with a z-score of -0.116.

In turn, `NC(=S)N=Nc1c(O)n(Cc2ccc(Br)cc2)c2ccccc12` displayed a z-score of -0.0836. The same measure for `O=C(C(Cc1ccccc1)N1C(=O)C2C3CCC(C3)C2C1=O)N1CCCCC1` (centres undefined): 0.123.

On to `CCSc1nc(=S)n(-c2ccccc2)c(C)c1C(C)=O`, for which the z-score is -0.643. The same measure for `CCN(CC)S(=O)(=O)c1cc(NC(=O)CCCOc2ccc(C(C)=O)cc2)ccc1C`: -0.346; for `O=C(CN1CCN(c2ncccn2)CC1)N1CCN(C(c2ccccc2)c2ccccc2)CC1`: -1.15.

Regarding `Cc1cc(C)n2nc(CC(=O)NCc3ccc(F)cc3)nc2n1`, the z-score was -0.0948.

These data come from PubChem BioAssay AID488969 (Vanderbilt High Throughput Screening Facility, 2010).
